Some of the results follow. The full chains were built here from the parent and the listed change. Values near 0.05 are background.
B1: TEV protease; numbered along this chain (parent)
chain: MGESLFKGPRDYNPISSSICHLTNESDGHTTSLYGIGFGPFIITNKHLFRRNNGTLVVQSLHGVFKVKDTTTLQQHLVDGRDMIIIRMPKDFPPFPQKLKFREPQREERICLVTTNFQTKSMSSMVSDTSCTFPSGDGIFWKHWIQTKDGQCGSPLVSTRDGFIVGIHSASNFTNTNNYFTSVPKNFMELLTNQEAQQWVSGWRLNADSVLWGGHKVFMVKPEEPFQPVKEATQL

Variants of: B1
Experiment: raw area under fraction-flipped curve 0-4 h after induction (AUC4h, not background-subtracted), DNA-recorder readout of cleavage of the substrate (dimensionless); higher = more cleavage of the substrate by the protease variant
Settings: temperature: 34 °C; time window: 0-4 h after rhamnose induction
Protocol: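 In vivo DNA recorder in E. coli TOP10(DE3) ΔrhaA at 34 °C. Each TEVp single-site mutant (parent TEVp 0) is paired with a single-site variant of the 7-mer TEVs (canonical ENLYFQ|S). The substrate sits between flexible linkers in a Bxb1-sfGFP-TEVs-SsrA fusion, so cleavage stabilises Bxb1 and speeds flipping of a recombination array, read by NGS. The value is the raw area under the fraction-flipped curve over 0-4 h after rhamnose induction (AUC4h), with ≥20 reads per time point. It is not background-subtracted; inactive controls average about 0.047.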
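Further: Bxb1 expression induced with 0.2% (w/v) L-rhamnose at OD600 near 0.5, cultures sampled hourly, flipped fraction per protease–substrate barcode pair counted by paired-end Illumina sequencing.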

Variant | area with substrate ENLYFAS | area with substrate ENLYFDS | area with substrate ENLYFES | area with substrate ENLYFFS | area with substrate ENLYFGS | area with substrate ENLYFHS | area with substrate ENLYFIS | area with substrate ENLYFKS | area with substrate ENLYFMS | area with substrate ENLYFNS | area with substrate ENLYFPS | area with substrate ENLYFRS | area with substrate ENLYFTS | area with substrate ENLYFCS | area with substrate ENLYFVS | area with substrate ENLYFYS | area with substrate ENLYFLS | area with substrate ENLYFWS | area with substrate ENLYFSS
L56Y | 0.0609 | 0.0604 | 0.0536 | 0.0559 | 0.0528 | 0.0561 | 0.0515 | 0.0609 | 0.0508 | 0.0407 | 0.0578 | 0.0485 | 0.0256 | – | – | – | – | – | –
L61G | 0.0536 | – | 0.0536 | 0.0676 | 0.0686 | 0.0935 | 0.0513 | 0.0708 | 0.0641 | 0.0624 | 0.0589 | 0.0571 | 0.0575 | 0.0832 | 0.0553 | 0.0755 | – | – | –
V64C | 0.137 | 0.0675 | 0.045 | 0.0688 | 0.0571 | 0.0534 | 0.06 | 0.0561 | 0.0747 | 0.0587 | 0.056 | 0.0563 | 0.0601 | 0.0477 | 0.066 | – | 0.0528 | 0.0653 | –
V64K | 0.0624 | – | 0.0645 | 0.0666 | 0.0511 | 0.0599 | 0.059 | 0.0729 | 0.062 | – | 0.039 | 0.0475 | 0.0542 | 0.0802 | – | 0.0242 | 0.0377 | 0.0448 | 0.0602
V64L | 0.0664 | – | 0.0549 | 0.0649 | – | 0.0552 | 0.109 | 0.0717 | 0.0519 | 0.0595 | 0.0541 | 0.0203 | 0.0422 | 0.0513 | – | 0.0388 | 0.0739 | 0.0512 | –
V64P | 0.0442 | – | 0.0615 | – | – | 0.0387 | 0.0463 | – | 0.0645 | 0.0758 | 0.0564 | – | – | 0.0342 | 0.0475 | 0.0456 | 0.0427 | – | –
V64R | 0.0663 | – | – | 0.0674 | 0.0478 | 0.0624 | 0.0616 | – | 0.0547 | – | 0.0532 | 0.0615 | 0.0588 | – | – | – | – | – | 0.0581
T72A | 0.0486 | 0.0489 | 0.0732 | – | 0.0734 | 0.0694 | 0.0524 | 0.0515 | 0.0817 | – | – | 0.0571 | 0.0538 | – | – | 0.0581 | 0.0649 | – | 0.0649
T72C | 0.057 | – | 0.0579 | 0.0687 | – | – | 0.0561 | 0.0696 | 0.0682 | 0.0639 | 0.0557 | 0.0607 | 0.0556 | 0.0583 | 0.0586 | – | – | – | –
T72H | 0.058 | – | 0.0556 | 0.108 | – | 0.0593 | 0.0579 | – | 0.0681 | 0.0659 | 0.0513 | 0.048 | 0.0454 | 0.0564 | 0.0624 | – | 0.0554 | 0.0548 | 0.0536
T72N | 0.0615 | 0.0622 | – | 0.0685 | 0.0637 | 0.055 | 0.0582 | 0.0508 | 0.0681 | 0.0711 | – | 0.0506 | 0.0549 | – | – | 0.0516 | – | 0.0581 | 0.0585
T72R | 0.0548 | 0.0643 | – | 0.0768 | – | 0.0532 | 0.0534 | – | 0.0619 | 0.074 | 0.0617 | – | – | 0.0533 | – | – | 0.0493 | 0.0614 | 0.0545
T72S | 0.0414 | 0.0552 | – | 0.0687 | – | 0.0638 | 0.0554 | 0.0454 | 0.0689 | 0.0616 | 0.055 | – | 0.0522 | 0.0568 | – | – | 0.0531 | 0.0402 | 0.0569
T72V | 0.0611 | 0.077 | 0.0654 | 0.0705 | – | – | 0.0476 | 0.0577 | 0.0639 | 0.0604 | 0.0582 | – | 0.0592 | – | 0.0197 | 0.068 | 0.0559 | – | 0.0485
Q75P | 0.0616 | 0.0554 | 0.0585 | 0.0637 | 0.0586 | 0.0794 | 0.0472 | 0.0549 | 0.0599 | 0.0438 | 0.0486 | 0.0537 | 0.0579 | 0.0537 | 0.0636 | 0.0581 | 0.0555 | 0.0479 | 0.0557
G80C | 0.0514 | 0.0641 | 0.0584 | 0.0712 | – | 0.0457 | 0.0558 | – | 0.0713 | – | 0.0487 | 0.0586 | 0.058 | 0.069 | – | 0.0601 | – | 0.0519 | –
G80N | 0.0424 | 0.0465 | 0.117 | 0.0609 | 0.0549 | 0.0527 | 0.0439 | – | 0.0668 | 0.0657 | 0.0531 | – | 0.0627 | 0.0619 | 0.0559 | – | – | – | –
G80P | 0.0617 | – | 0.107 | – | – | – | 0.0603 | – | 0.0521 | – | 0.0484 | – | – | – | – | – | – | – | –
G80T | 0.0527 | – | 0.0649 | 0.0706 | 0.0711 | – | 0.056 | 0.0596 | 0.0608 | 0.0629 | 0.0548 | 0.0513 | 0.0531 | 0.0639 | – | – | – | 0.0464 | 0.0575
R81N | 0.0829 | 0.0622 | 0.0437 | – | – | 0.0527 | 0.0541 | – | 0.0639 | 0.0472 | 0.0689 | 0.0581 | 0.0629 | – | 0.0588 | – | 0.0611 | 0.0577 | –
R81T | 0.067 | 0.0558 | 0.0624 | 0.0614 | 0.0685 | 0.0648 | 0.0576 | 0.0698 | 0.052 | 0.0606 | 0.0654 | 0.0478 | 0.0499 | 0.0555 | – | 0.0597 | – | 0.0606 | –
M88C | 0.0409 | – | – | 0.125 | – | – | 0.0538 | – | 0.0671 | – | – | 0.0521 | – | 0.0504 | – | 0.0701 | – | – | –
M88E | 0.0337 | – | 0.0453 | 0.0581 | – | – | 0.0646 | 0.0636 | 0.0859 | 0.0403 | 0.0481 | – | 0.056 | – | – | – | 0.0567 | 0.0596 | –
M88G | 0.0466 | – | 0.0662 | 0.0575 | 0.0443 | 0.0383 | 0.0515 | 0.0398 | 0.0403 | – | 0.0571 | 0.0505 | 0.0494 | 0.0567 | – | – | – | 0.0432 | 0.0409
M88H | 0.0421 | – | 0.0414 | 0.0434 | – | – | – | – | 0.0244 | – | – | – | 0.0471 | – | 0.0256 | 0.0448 | – | 0.0365 | 0.0504
M88W | 0.0488 | 0.0817 | 0.0676 | 0.0607 | – | 0.056 | – | 0.0502 | 0.0608 | 0.0611 | – | – | 0.0574 | 0.0525 | – | 0.0365 | 0.0601 | 0.0453 | –
P96F | 0.0636 | 0.0451 | 0.0606 | – | – | – | 0.0517 | – | 0.0507 | 0.058 | 0.0577 | 0.0767 | – | 0.0511 | – | 0.0535 | – | 0.0576 | 0.0616

From the supplement of paper PMC12217912
